According to PMC4336329 (PLoS ONE, 2015):
Among all 310,000 compounds or so, about 14,000 (4.5%) showed an effect of 50% or more. The effect is printed as a negative number. Some of the results follow.

The molecules below were run against human ether-à-go-go-related gene (hERG) potassium channel (human, UniProt Q12809) (assay: primary screen, population patch clamp on CHO cells stably expressing hERG).
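Further: peak tail current of the secondary pulse compared with the same well before compound.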

Chain of human ether-à-go-go-related gene (hERG) potassium channel (Q12809 whole entry, looked up): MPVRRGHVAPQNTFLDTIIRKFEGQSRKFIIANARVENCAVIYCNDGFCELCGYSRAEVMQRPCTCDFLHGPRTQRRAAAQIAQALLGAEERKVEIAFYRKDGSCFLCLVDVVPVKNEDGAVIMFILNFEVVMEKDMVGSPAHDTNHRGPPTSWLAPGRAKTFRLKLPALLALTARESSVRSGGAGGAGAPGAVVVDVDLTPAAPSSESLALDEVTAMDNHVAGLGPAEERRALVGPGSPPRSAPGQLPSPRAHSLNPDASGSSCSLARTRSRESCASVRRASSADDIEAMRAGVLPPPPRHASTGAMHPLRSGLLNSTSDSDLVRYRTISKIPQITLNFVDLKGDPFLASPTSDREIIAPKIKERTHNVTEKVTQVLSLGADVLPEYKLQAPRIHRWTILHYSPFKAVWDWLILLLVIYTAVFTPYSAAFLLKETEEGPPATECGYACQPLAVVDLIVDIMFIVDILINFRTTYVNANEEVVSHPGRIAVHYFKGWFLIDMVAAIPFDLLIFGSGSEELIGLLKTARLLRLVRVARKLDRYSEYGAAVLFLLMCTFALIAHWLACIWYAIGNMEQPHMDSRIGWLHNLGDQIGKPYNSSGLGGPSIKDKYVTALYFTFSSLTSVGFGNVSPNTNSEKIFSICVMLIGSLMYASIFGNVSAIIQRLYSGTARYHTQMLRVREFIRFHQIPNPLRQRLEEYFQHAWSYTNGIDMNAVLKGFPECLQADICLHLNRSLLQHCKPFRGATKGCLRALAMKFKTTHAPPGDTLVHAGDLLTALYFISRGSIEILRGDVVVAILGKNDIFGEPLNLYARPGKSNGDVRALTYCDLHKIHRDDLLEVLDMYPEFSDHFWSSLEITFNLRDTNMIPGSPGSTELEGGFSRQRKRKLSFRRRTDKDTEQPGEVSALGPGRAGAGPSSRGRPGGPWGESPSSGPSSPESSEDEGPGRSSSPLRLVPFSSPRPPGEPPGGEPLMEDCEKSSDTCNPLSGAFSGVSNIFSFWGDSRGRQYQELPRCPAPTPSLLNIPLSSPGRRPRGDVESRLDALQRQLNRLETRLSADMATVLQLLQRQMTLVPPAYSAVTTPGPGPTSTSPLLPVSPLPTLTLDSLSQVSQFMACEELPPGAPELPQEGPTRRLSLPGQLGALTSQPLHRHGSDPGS

Row | Compound | hERG current change (%, negative = inhibition) at 10uM
1 | O=C(CCCn1c(=O)[nH]c2cc(Cl)ccc2c1=O)NC1CCCCCC1 | -6.67%
2 | Cc1nnc(NC(=O)CSc2nc(C(C)C)nc3ccccc23)s1 | 8.47%
3 | CC(C)n1c(NCCc2ccccc2)nc2c1c(=O)n(C)c(=O)n2C | 8.06%
4 | Cc1ccc(C2CC(c3cccc(NS(C)(=O)=O)c3)=NN2S(C)(=O)=O)cc1 (stereo not drawn) | -69.3%
5 | CCOc1ccc(NC(=O)CN(C)C(=O)COc2cccc(CC)c2)cc1OCC | -24.4%
6 | CCC(Sc1nc(C)cc(C)n1)C(=O)Nc1ccc(Cl)cn1 (stereo not drawn) | -16.6%
7 | O=C(C[n+]1cccc2ccccc21)c1ccc([N+](=O)[O-])cc1.[Br-] | -72.4%
8 | COc1cc2c(cc1OC)CN(C1CCCN(Cc3cc(Cl)ccc3O)C1)CC2 (stereo not drawn) | -49.6%
9 | Cc1c(O)ccc(C(=O)COc2ccccc2F)c1O | -6.37%
10 | CCOC(=O)CN1C(=O)SC(CC(=O)Nc2nccs2)C1=O (stereo not drawn) | 17%
11 | CCOc1cc(/C=N\NC(=O)OC)ccc1OC(=O)c1ccco1 | 2.95%
12 | COc1cccc(NC(=O)CN(C)C(=O)/C=C/c2cc(OC)ccc2OC)c1 | -67.8%
13 | CCOc1ccc(CNC(=O)c2ccc(Sc3ccc(Cl)cc3)c(NC(C)=O)c2)cc1OC | -15.5%
14 | Cc1cccc(C)c1NC(=O)CN(C)C(=O)c1ccc(-c2cccc(C(F)(F)F)c2)o1 | -12.5%
15 | CC(=O)Oc1ccc(C(=O)O)c(OC(C)=O)c1 | 12.1%
16 | CN1CCN(C(=S)c2cn(Cc3ccccc3)c3ccccc23)CC1 | 26.7%
17 | COc1ccc(Cl)cc1NC(=O)CSc1nc(-c2ccccc2)cc(=O)[nH]1 | 1.35%
18 | COc1ccc(C(=O)N[C@H](C(=O)Nc2ccc(S(=O)(=O)N3CCOCC3)cc2)C(C)C)cc1 | -18%
19 | O=C(NC1CCCCC1)N1CCN(C(=O)c2ccco2)CC1 | -6.24%
20 | CCOC(=O)c1ccc(Nc2ncccc2[N+](=O)[O-])cc1 | 9.89%
21 | CCCCN(CC(=O)NC(C)(C)C)C(=O)C(=O)Nc1ccc2c(c1)OCCO2 | -0.704%
22 | CC1CN(C(=O)c2ccc(COc3ccc4ccccc4c3)o2)CC(C)O1 (stereo not drawn) | -10.3%
23 | CCCCCCCCCCCCS(=O)(=O)CCC(=O)O | 11.1%
24 | Cc1cccc2c1[nH]c1nc(N/N=C\c3ccco3)nnc12 | 15.5%
